These are yes or no findings as the source states them, for the method shown. In cells and extracts the contact can be indirect. Some results given as binding are weak or reduced against the parent protein; the word gives no strength. Where a sequence is shown, tags or fusion partners need not be part of it.
Legend:
[1] = target: T1, Recombinant GST-TRIM65 protein (UniProt Q6PJ69); experiment: pull-down; GST or GST-TRIM65 with whole-cell lysates of transfected HEK293T cells, 50 mM Tris-HCl pH 7.5, 150 mM NaCl, 1% Triton, 4 °C overnight; glutathione Sepharose, immunoblot; only the target purified
T1 sequence: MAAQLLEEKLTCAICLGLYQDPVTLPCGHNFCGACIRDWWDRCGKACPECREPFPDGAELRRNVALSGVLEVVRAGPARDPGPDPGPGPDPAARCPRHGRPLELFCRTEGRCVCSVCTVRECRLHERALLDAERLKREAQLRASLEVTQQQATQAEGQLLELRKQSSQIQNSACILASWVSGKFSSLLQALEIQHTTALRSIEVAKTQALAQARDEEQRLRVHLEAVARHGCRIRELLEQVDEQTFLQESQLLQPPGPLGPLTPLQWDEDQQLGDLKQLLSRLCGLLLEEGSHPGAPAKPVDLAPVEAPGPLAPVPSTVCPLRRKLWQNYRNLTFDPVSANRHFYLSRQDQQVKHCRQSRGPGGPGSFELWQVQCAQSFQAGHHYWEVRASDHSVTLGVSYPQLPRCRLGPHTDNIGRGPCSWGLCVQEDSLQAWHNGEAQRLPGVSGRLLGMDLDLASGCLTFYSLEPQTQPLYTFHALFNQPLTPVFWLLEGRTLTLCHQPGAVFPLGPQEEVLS

[2] = target: T2, HA-TOX4 (UniProt O94842); experiment: co-IP; HEK293T co-transfected with HA-TOX4 and Flag-TRIM65, MG132 10 uM 4 h before harvest; lysates with specific antibodies and Protein A/G, immunoblot
T2 sequence: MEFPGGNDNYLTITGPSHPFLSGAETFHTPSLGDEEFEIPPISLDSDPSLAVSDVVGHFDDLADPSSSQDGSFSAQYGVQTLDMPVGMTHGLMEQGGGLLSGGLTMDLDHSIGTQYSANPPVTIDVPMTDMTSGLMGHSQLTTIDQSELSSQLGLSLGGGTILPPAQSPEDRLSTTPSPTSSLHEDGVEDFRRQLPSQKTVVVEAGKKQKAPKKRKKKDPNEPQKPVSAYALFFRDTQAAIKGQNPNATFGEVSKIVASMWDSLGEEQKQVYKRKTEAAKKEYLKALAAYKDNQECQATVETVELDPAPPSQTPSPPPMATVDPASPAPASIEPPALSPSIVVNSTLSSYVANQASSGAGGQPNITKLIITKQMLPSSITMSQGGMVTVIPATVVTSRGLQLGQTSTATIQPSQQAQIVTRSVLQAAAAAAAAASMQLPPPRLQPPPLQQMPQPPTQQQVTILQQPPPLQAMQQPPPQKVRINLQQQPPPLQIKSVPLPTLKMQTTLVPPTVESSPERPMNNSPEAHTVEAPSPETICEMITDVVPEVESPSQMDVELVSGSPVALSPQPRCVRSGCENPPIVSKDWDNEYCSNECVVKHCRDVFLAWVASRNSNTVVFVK

[3] = target: T2, HA-TOX4; experiment: co-IP; HEK293T transfected with GFP-TRIM65 full length or deletion mutants together with HA-TOX4, MG132; precipitated with HA antibody, blotted with HA or GFP antibody

B1: HA-TOX4 (protein, UniProt O94842 1-621)
chain: MEFPGGNDNYLTITGPSHPFLSGAETFHTPSLGDEEFEIPPISLDSDPSLAVSDVVGHFDDLADPSSSQDGSFSAQYGVQTLDMPVGMTHGLMEQGGGLLSGGLTMDLDHSIGTQYSANPPVTIDVPMTDMTSGLMGHSQLTTIDQSELSSQLGLSLGGGTILPPAQSPEDRLSTTPSPTSSLHEDGVEDFRRQLPSQKTVVVEAGKKQKAPKKRKKKDPNEPQKPVSAYALFFRDTQAAIKGQNPNATFGEVSKIVASMWDSLGEEQKQVYKRKTEAAKKEYLKALAAYKDNQECQATVETVELDPAPPSQTPSPPPMATVDPASPAPASIEPPALSPSIVVNSTLSSYVANQASSGAGGQPNITKLIITKQMLPSSITMSQGGMVTVIPATVVTSRGLQLGQTSTATIQPSQQAQIVTRSVLQAAAAAAAAASMQLPPPRLQPPPLQQMPQPPTQQQVTILQQPPPLQAMQQPPPQKVRINLQQQPPPLQIKSVPLPTLKMQTTLVPPTVESSPERPMNNSPEAHTVEAPSPETICEMITDVVPEVESPSQMDVELVSGSPVALSPQPRCVRSGCENPPIVSKDWDNEYCSNECVVKHCRDVFLAWVASRNSNTVVFVK
With B1 the binding [1] was “binds”.

B2: TOX4 N-terminal domain (residues 1-300) fused with GFP (domain or fragment, UniProt O94842 1-300)
chain: MEFPGGNDNYLTITGPSHPFLSGAETFHTPSLGDEEFEIPPISLDSDPSLAVSDVVGHFDDLADPSSSQDGSFSAQYGVQTLDMPVGMTHGLMEQGGGLLSGGLTMDLDHSIGTQYSANPPVTIDVPMTDMTSGLMGHSQLTTIDQSELSSQLGLSLGGGTILPPAQSPEDRLSTTPSPTSSLHEDGVEDFRRQLPSQKTVVVEAGKKQKAPKKRKKKDPNEPQKPVSAYALFFRDTQAAIKGQNPNATFGEVSKIVASMWDSLGEEQKQVYKRKTEAAKKEYLKALAAYKDNQECQATV
In the case of B2, the binding [1] is reported as “binds”.

B3: TOX4 fragment (residues 301-540) fused with GFP (domain or fragment, UniProt O94842 301-540)
chain: ETVELDPAPPSQTPSPPPMATVDPASPAPASIEPPALSPSIVVNSTLSSYVANQASSGAGGQPNITKLIITKQMLPSSITMSQGGMVTVIPATVVTSRGLQLGQTSTATIQPSQQAQIVTRSVLQAAAAAAAAASMQLPPPRLQPPPLQQMPQPPTQQQVTILQQPPPLQAMQQPPPQKVRINLQQQPPPLQIKSVPLPTLKMQTTLVPPTVESSPERPMNNSPEAHTVEAPSPETICEM
With B3 the binding [1] was “no binding”.

B4: Flag-TRIM65 (protein, UniProt Q6PJ69 1-517)
chain: MAAQLLEEKLTCAICLGLYQDPVTLPCGHNFCGACIRDWWDRCGKACPECREPFPDGAELRRNVALSGVLEVVRAGPARDPGPDPGPGPDPAARCPRHGRPLELFCRTEGRCVCSVCTVRECRLHERALLDAERLKREAQLRASLEVTQQQATQAEGQLLELRKQSSQIQNSACILASWVSGKFSSLLQALEIQHTTALRSIEVAKTQALAQARDEEQRLRVHLEAVARHGCRIRELLEQVDEQTFLQESQLLQPPGPLGPLTPLQWDEDQQLGDLKQLLSRLCGLLLEEGSHPGAPAKPVDLAPVEAPGPLAPVPSTVCPLRRKLWQNYRNLTFDPVSANRHFYLSRQDQQVKHCRQSRGPGGPGSFELWQVQCAQSFQAGHHYWEVRASDHSVTLGVSYPQLPRCRLGPHTDNIGRGPCSWGLCVQEDSLQAWHNGEAQRLPGVSGRLLGMDLDLASGCLTFYSLEPQTQPLYTFHALFNQPLTPVFWLLEGRTLTLCHQPGAVFPLGPQEEVLS
B4 was tested, and the binding [2] was “binds”.

B5: GFP-TRIM65 full length (protein, UniProt Q6PJ69 1-517)
chain: MAAQLLEEKLTCAICLGLYQDPVTLPCGHNFCGACIRDWWDRCGKACPECREPFPDGAELRRNVALSGVLEVVRAGPARDPGPDPGPGPDPAARCPRHGRPLELFCRTEGRCVCSVCTVRECRLHERALLDAERLKREAQLRASLEVTQQQATQAEGQLLELRKQSSQIQNSACILASWVSGKFSSLLQALEIQHTTALRSIEVAKTQALAQARDEEQRLRVHLEAVARHGCRIRELLEQVDEQTFLQESQLLQPPGPLGPLTPLQWDEDQQLGDLKQLLSRLCGLLLEEGSHPGAPAKPVDLAPVEAPGPLAPVPSTVCPLRRKLWQNYRNLTFDPVSANRHFYLSRQDQQVKHCRQSRGPGGPGSFELWQVQCAQSFQAGHHYWEVRASDHSVTLGVSYPQLPRCRLGPHTDNIGRGPCSWGLCVQEDSLQAWHNGEAQRLPGVSGRLLGMDLDLASGCLTFYSLEPQTQPLYTFHALFNQPLTPVFWLLEGRTLTLCHQPGAVFPLGPQEEVLS
With B5 the binding [3] was “binds”.

B6: TOX4 fragment (residues 223-622) fused with GFP (domain or fragment, UniProt O94842 223-621)
chain: PQKPVSAYALFFRDTQAAIKGQNPNATFGEVSKIVASMWDSLGEEQKQVYKRKTEAAKKEYLKALAAYKDNQECQATVETVELDPAPPSQTPSPPPMATVDPASPAPASIEPPALSPSIVVNSTLSSYVANQASSGAGGQPNITKLIITKQMLPSSITMSQGGMVTVIPATVVTSRGLQLGQTSTATIQPSQQAQIVTRSVLQAAAAAAAAASMQLPPPRLQPPPLQQMPQPPTQQQVTILQQPPPLQAMQQPPPQKVRINLQQQPPPLQIKSVPLPTLKMQTTLVPPTVESSPERPMNNSPEAHTVEAPSPETICEMITDVVPEVESPSQMDVELVSGSPVALSPQPRCVRSGCENPPIVSKDWDNEYCSNECVVKHCRDVFLAWVASRNSNTVVFVK
For B6, the binding [1] was “no binding”.

B7: TOX4 fragment (residues 223-540) fused with GFP (domain or fragment, UniProt O94842 223-540)
chain: PQKPVSAYALFFRDTQAAIKGQNPNATFGEVSKIVASMWDSLGEEQKQVYKRKTEAAKKEYLKALAAYKDNQECQATVETVELDPAPPSQTPSPPPMATVDPASPAPASIEPPALSPSIVVNSTLSSYVANQASSGAGGQPNITKLIITKQMLPSSITMSQGGMVTVIPATVVTSRGLQLGQTSTATIQPSQQAQIVTRSVLQAAAAAAAAASMQLPPPRLQPPPLQQMPQPPTQQQVTILQQPPPLQAMQQPPPQKVRINLQQQPPPLQIKSVPLPTLKMQTTLVPPTVESSPERPMNNSPEAHTVEAPSPETICEM
B7 was tested, and the binding [1] was “no binding”.
